# Data: PubChem BioAssay AID1508642 (National Center for Advancing Translational Sciences (NCATS), 2021)
# The whole screen tested about 43,000 compounds, of which about 200 (0.47%) were called active. Inconclusive results (about 12%) are left out. The call rests on the fitted dose curve; in most records, active means well fitted cell-killing curve with a large enough effect; inconclusive means small, poorly fitted or top-dose-only effect, or effect the other way; inactive means flat fitted curve, though single readings scatter. This is one part of the list.
# Experiment: Cell viability qHTS assay in S16 Pmp22-F2sN cells; further: nearly all actives have a fitted effect of over 65% in size
# Details: S16 Pmp22-F2sN Schwann cells (luciferase reporters placed in the Pmp22 gene) viability, CellTiter-Glo, 24 h; series mostly up to 57.5 µM; activity change, negative = cytotoxicity: at the top concentration
# Procedure, shortened: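 CellTiter-Glo counter-screen, qHTS, 1536-well. Cells: S16(c9) Pmp22-F2sN, 500-1,000/well in DMEM + 10% FBS. Cpd 23 nL pin transfer, 24 h, 37C/5% CO2. Read: luminescence, CCD imager.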
# On the % scale 0 is the no-effect control and ±100 the full control effect.
row,SMILES,"activity change, negative = cytotoxicity"
1,O=C(Cn1ccn(-c2ccc(F)cc2)c(=O)c1=O)NCCc1ccccc1,inactive: 9.41%
2,CC(=O)N1c2ccc(S(=O)(=O)N3CCN(c4ccc(C)cc4C)CC3)cc2CC1C (stereo not drawn),inactive: -16.3%
3,CCOc1ccc(N(c2nc(-c3ccc(OC)c(OC)c3)no2)c2nc(-c3ccc(OC)c(OC)c3)no2)cc1,inactive: 14.6%
4,COc1ccccc1N(CC(=O)NCCSCc1ccccc1Cl)S(C)(=O)=O,inactive: 1.24%
5,CCOC(=O)c1cnc2ccc(C)cc2c1Nc1ccc(OCc2ccccc2Cl)cc1,inactive: -28.6%
6,Cc1ccc(OCC(=O)Nc2ccc3nc(SCC(=O)N4CCCC4)sc3c2)cc1,inactive: 10.5%
7,O=C(CSc1nc2cc(C(=O)NC3CCCC3)ccc2c(=O)n1CC1CCCO1)c1ccc(F)cc1 (stereo not drawn),inactive: 8.02%
8,Cc1ccc(C)c(S(=O)(=O)c2cn(Cc3ccccc3)c3cc(F)c(F)cc3c2=O)c1,inactive: 0.74%
9,CNC(=O)c1ccc2c(c1)N=C(C)c1cc(C)ccc1S2,inactive: -7.35%
10,COc1ccc2oc(-c3ccc(C)c(NC(=O)c4cccnc4)c3)nc2c1,inactive: -3.31%
11,COc1cc(OC)c(NC(=O)CSc2nccn2C)cc1Cl,inactive: 21.8%
12,CC1CCN(c2oc(-c3cccs3)nc2S(=O)(=O)c2ccc(Cl)cc2)CC1,inactive: -17.4%
13,Cc1ccc(CNC(=O)c2ccc(-n3c(C)cc4c3CCCC4)cc2)cc1,inactive: -0.962%
14,CC(C)(C)C1CCc2oc3ccc(NS(=O)(=O)c4cc(Cl)ccc4Cl)cc3c2C1 (stereo not drawn),inactive: -4.21%
15,CCCC(=O)OC1=CN(Cc2ccccc2)S(=O)(=O)c2ccccc21,inactive: 2.58%
16,O=C(Cn1cc(SCc2cccc(F)c2)c2ccccc21)N1CCOCC1,inactive: 0.344%
17,CCOC(=O)c1c(SCC(=O)Nc2nc3ccc(C)cc3s2)nc(=O)[nH]c1C,inactive: 5.19%
18,Cc1cccc(C(=O)Nc2nc3c(s2)CCCC3)c1,inactive: -19.1%
19,c1ccc(CNc2ncnc3[nH]ncc23)cc1,inactive: -14.6%
20,CCOC(=O)N1CCc2c(sc3c2c(=O)n(CCc2ccccc2)c(=O)n3Cc2ccc(C)cc2C)C1,inactive: 15.4%
21,COc1ccc(-c2nc(CCNC(=O)Cc3ccc(F)cc3)cs2)cc1,inactive: -1.54%
22,Cc1cccc(N2CCN(C(=O)CCNS(=O)(=O)c3ccc4c(c3)CCN4C(=O)C3CC3)CC2C)c1 (stereo not drawn),inactive: -21.1%
23,O=C(NC1CC(=O)N(c2ccccc2)C1)c1cccs1 (stereo not drawn),inactive: 7.21%
24,CCc1ccccc1NC(=O)N1CC(CC)Oc2ccc(Cl)cc21 (stereo not drawn),inactive: -9.87%

row,SMILES,"activity change, negative = cytotoxicity"
1,CSc1ccc(CCNC(=O)c2ccc3c(c2)nc2n3CCC(C)C2)cc1 (stereo not drawn),inactive: 17.1%
2,CCOCCc1nn2c(=O)cc(COC(=O)c3ccccc3NC(=O)c3cccs3)nc2s1,inactive: 5.29%
3,COc1ccc(-c2nc3c(c(SCC(=O)Nc4cc(C)cc(C)c4)n2)Cc2c(CO)cnc(C)c2O3)cc1,inactive: 14.3%
4,COc1cccc(CN2C(=O)C3(SCC(=O)N3c3ccc(F)cc3)c3ccccc32)c1 (stereo not drawn),inactive: -11.8%
5,O=C(C1CCCN(S(=O)(=O)c2cccs2)C1)N1CCN(c2ccccc2F)CC1 (stereo not drawn),inactive: -2.79%
6,CN1C(=O)c2ccccc2Sc2ccc(NC(=O)NCc3ccccc3Br)cc21,inactive: -18.3%
7,Cc1ccc(CN(Cc2cccn2-c2nnc(N3CCCC3=O)s2)C(=O)Nc2cc(C)cc(C)c2)cc1,inactive: 0.14%
8,Cc1nc2sc(C)c(C)n2c(=O)c1S(=O)(=O)NCCc1ccc(Cl)cc1,inactive: -0.563%
9,O=C(NCc1cccc(Cl)c1)c1ccc2c(c1)nc1n2CCOC1,inactive: -1.23%
10,CC(=O)c1ccc(NC(=O)c2cn(C)c(=O)c3ccccc23)cc1,inactive: 10.6%
11,Cc1ccc(CN(Cc2ccco2)C(=O)c2ccccc2Cl)o1,inactive: 3.9%
12,Fc1ccc(-c2nnc(CN3CCN(c4ccccn4)CC3)o2)cc1,inactive: 5.31%
13,COc1ccc(C(=O)c2cn(Cc3ccc(F)cc3)c3c(F)cc(F)cc3c2=O)cc1,inactive: 5.45%
14,O=C(C1COc2cc(S(=O)(=O)Nc3ccc(Cl)cc3)ccc2O1)N1CCCC1 (stereo not drawn),inactive: 5.78%
15,CCc1ccc(S(=O)(=O)c2nnn3c2nc(N2CCN(CC)CC2)c2sccc23)cc1,inactive: 5.05%
16,CCOC(=O)c1ccc(N2C(=O)c3n[nH]c(-c4ccco4)c3C2c2cccc(F)c2)cc1 (stereo not drawn),inactive: 0.937%
17,Cc1ccc(NC(=O)CSc2nc3ccc(NC(=O)c4cccc(Cl)c4)cc3s2)c(C)c1,inactive: 24.7%
18,COc1ccccc1C(=O)Nc1ccc(-c2nc3cc(C)cc(C)c3o2)cc1,inactive: 12.4%
19,CCc1ccccc1N(C)C(=O)c1cc2c(s1)-c1c(C)cccc1OC2,inactive: 9.5%
20,Cc1ccc(Cn2c(C)c(CNCc3ccccc3F)c(C(=O)O)c2C)cc1,inactive: 3.86%
21,O=C(Cn1ncc2c3ccccc3n(Cc3ccccc3)c2c1=O)NCc1ccccc1,inactive: 7.37%
22,CC(C)NS(=O)(=O)c1ccc(OCC(=O)N2CCN(c3cccc(Cl)c3)CC2)cc1,inactive: 0.317%
23,COc1cc(C2C(C(=O)Nc3ccccc3)=C(C)Nc3nc(SCC(=O)c4ccc(C)cc4)nn32)ccc1O (stereo not drawn),inactive: 4.61%
24,CCc1ccccc1NC(=O)C1=CC(c2ccc3c(c2)OCO3)=NS(=O)(=O)N1C,inactive: -0.897%
